Reference: the supplement of paper PMC8728848
Some of the results follow.

Key:
Test in all cases: glycan array binding signal (z-score within array); higher = stronger binding
Settings in all cases: glycan notation: IUPAC condensed, linker removed
[1] = target: Neu5Ac(a2-8)Neu5Ac
Summary of the method: (§1)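 Columns mapping to the same glycan were averaged after glycan names were converted to IUPAC-condensed notation. The data come from 3228 arrays in the Consortium for Functional Glycomics database, limited to those with an available protein sequence. Binding is reported as a within-array Z-score averaged across arrays of one protein sequence and across linkers.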

[2] = target: Neu5Ac(a2-8)Neu5Ac(a2-3)Gal(b1-3)GalNAc(b1-4)[Neu5Ac(a2-3)]Gal(b1-4)Glc
Summary of the method: as §1

[3] = target: Neu5Ac(a2-8)Neu5Ac(a2-3)Gal(b1-3)GalNAc(b1-4)[Neu5Ac(a2-8)Neu5Ac(a2-3)]Gal(b1-4)Glc
Summary of the method: as §1

[4] = target: Neu5Ac(a2-8)Neu5Ac(a2-3)Gal(b1-4)Glc
Summary of the method: as §1

[5] = target: Neu5Ac(a2-8)Neu5Ac(a2-3)Gal(b1-4)GlcNAc
Summary of the method: as §1

[6] = target: Neu5Ac(a2-8)Neu5Ac(a2-3)[Gal(b1-3)GalNAc(b1-4)]Gal(b1-4)Glc
Summary of the method: as §1

[7] = target: Neu5Ac(a2-8)Neu5Ac(a2-3)[GalNAc(b1-4)]Gal(b1-4)Glc
Summary of the method: as §1

[8] = target: Neu5Ac(a2-8)Neu5Ac(a2-8)Neu5Ac
Summary of the method: as §1

[9] = target: Neu5Ac(a2-8)Neu5Ac(a2-8)Neu5Ac(a2-3)Gal(b1-4)Glc
Summary of the method: as §1

[10] = target: Neu5Ac(a2-8)Neu5Ac(a2-8)Neu5Ac(a2-3)[Gal(b1-3)GalNAc(b1-4)]Gal(b1-4)Glc
Summary of the method: as §1

[11] = target: Neu5Ac(a2-8)Neu5Ac(a2-8)Neu5Ac(a2-3)[GalNAc(b1-4)]Gal(b1-4)Glc
Summary of the method: as §1

[12] = target: Neu5Ac(a2-8)Neu5Ac(a2-8)Neu5Ac(a2-8)Neu5Ac(a2-3)[GalNAc(b1-4)]Gal(b1-4)Glc
Summary of the method: as §1

[13] = target: Neu5Ac(a2-8)Neu5Gc(a2-3)Gal(b1-4)GlcNAc
Summary of the method: as §1

[14] = target: Neu5Ac(b2-6)Gal(b1-4)GlcNAc
Summary of the method: as §1

[15] = target: Neu5Ac(b2-6)GalNAc
Summary of the method: as §1

[16] = target: Neu5Ac9Ac(a2-3)Gal(b1-3)GlcNAc
Summary of the method: as §1

[17] = target: Neu5Ac9Ac(a2-3)Gal(b1-4)GlcNAc
Summary of the method: as §1

[18] = target: Neu5Ac9Ac(a2-6)Gal(b1-4)GlcNAc
Summary of the method: as §1

[19] = target: Neu5Gc(a2-3)Gal(b1-3)GlcNAc
Summary of the method: as §1

[20] = target: Neu5Gc(a2-3)Gal(b1-3)[Fuc(a1-4)]GlcNAc
Summary of the method: as §1

[21] = target: Neu5Gc(a2-3)Gal(b1-4)Glc
Summary of the method: as §1

[22] = target: Neu5Gc(a2-3)Gal(b1-4)GlcNAc
Summary of the method: as §1

[23] = target: Neu5Gc(a2-3)Gal(b1-4)GlcNAc(b1-3)Gal(b1-4)GlcNAc(b1-2)Man(a1-3)[Neu5Gc(a2-3)Gal(b1-4)GlcNAc(b1-3)Gal(b1-4)GlcNAc(b1-2)Man(a1-6)]Man(b1-4)GlcNAc(b1-4)GlcNAc
Summary of the method: as §1

[24] = target: Neu5Gc(a2-3)Gal(b1-4)[Fuc(a1-3)]GlcNAc
Summary of the method: as §1

[25] = target: Neu5Gc(a2-6)Gal(b1-4)GlcNAc
Summary of the method: as §1

[26] = target: Neu5Gc(a2-6)GalNAc
Summary of the method: as §1

[27] = target: Neu5Gc(a2-8)Neu5Ac(a2-3)Gal(b1-4)GlcNAc
Summary of the method: as §1

[28] = target: Neu5Gc(a2-8)Neu5Gc(a2-3)Gal(b1-4)GlcNAc
Summary of the method: as §1

[29] = target: Neu5Gc(a2-8)Neu5Gc(a2-3)Gal(b1-4)GlcNAc(b1-3)Gal(b1-4)GlcNAc
Summary of the method: as §1

[30] = target: Neu5Gc(a2-8)Neu5Gc(a2-6)Gal(b1-4)GlcNAc
Summary of the method: as §1

[31] = target: Neu5Gc(b2-6)Gal(b1-4)GlcNAc
Summary of the method: as §1

B1: LFA (Limax flavus) (protein)
chain: MSVLFLAASFLLLASFELVAAQGCPRQDPGDWIVIQRRLNADVNFYRGWADYKHGFGDLRCNFWLGNEKIHQLTSHGRYKLRVEFTFNNKSYFAEYSTFKILGEADKYKLQVGGYSGNAGDALTFHNGMAFSTNDRDNDADSIDCAKVYHGAWWYKTCHESNLNGKWGSKKYGEGLNWKAKTTFTATATSSLLKIKALK
- glycan array binding signal (z-score) [1]: -0.32
- glycan array binding signal (z-score) [2]: -0.229
- glycan array binding signal (z-score) [3]: -0.235
- glycan array binding signal (z-score) [4]: -0.183
- glycan array binding signal (z-score) [5]: -0.343
- glycan array binding signal (z-score) [6]: -0.054
- glycan array binding signal (z-score) [7]: -0.104
- glycan array binding signal (z-score) [8]: -0.246
- glycan array binding signal (z-score) [9]: -0.269
- glycan array binding signal (z-score) [10]: -0.353
- glycan array binding signal (z-score) [11]: 0.236
- glycan array binding signal (z-score) [12]: -0.179
- glycan array binding signal (z-score) [13]: -0.342
- glycan array binding signal (z-score) [14]: 0.055
- glycan array binding signal (z-score) [15]: -0.284
- glycan array binding signal (z-score) [16]: -0.339
- glycan array binding signal (z-score) [17]: 0.463
- glycan array binding signal (z-score) [18]: -0.341
- glycan array binding signal (z-score) [19]: -0.329
- glycan array binding signal (z-score) [20]: -0.328
- glycan array binding signal (z-score) [21]: 0.149
- glycan array binding signal (z-score) [22]: -0.285
- glycan array binding signal (z-score) [23]: -0.166
- glycan array binding signal (z-score) [24]: -0.306
- glycan array binding signal (z-score) [25]: -0.28
- glycan array binding signal (z-score) [26]: -0.367
- glycan array binding signal (z-score) [27]: -0.232
- glycan array binding signal (z-score) [28]: -0.155
- glycan array binding signal (z-score) [29]: -0.237
- glycan array binding signal (z-score) [30]: -0.336
- glycan array binding signal (z-score) [31]: -0.314
